# The supplement of paper PMC8728848
# Some of the results follow.
# B1: DC-ASGPR-short (Homo sapiens) (protein)
# chain: MTRTYENFQYLENKVKVQGFKNGPLPLQSLLQRLRSGPCHLLLSLGLGLLLLVIICVVGFQNSKFQRDLVTLRTDFSNFTSNTVAEIQALTSQGSSLEETIASLKAEVEGFKQERQAVHSEMLLRVQQLVQDLKKLTCQVATLNNNASTEGTCCPVNWVEHQDSCYWFSHSGMSWAEAEKYCQLKNAHLVVINSREEQNFVQKYLGSAYTWMGLSDPEGAWKWVDGTDYATGFQNWKPGQPDDWQGHGLGGGEDCAHFHPDGRWNDDVCQRPYHWVCEAGLGQTSQESH
# How the values were obtained:
# Assay in all cases: glycan array binding signal (z-score within array); higher = stronger binding
# Conditions in all cases: glycan notation: IUPAC condensed, linker removed
# [1] = target: Neu5Ac(a2-3)Gal(b1-4)GlcNAc(b1-3)[Neu5Ac(a2-3)Gal(b1-4)GlcNAc(b1-6)]GalNAc
# In short: (§1)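 Glycan array data were curated from 3228 arrays in the Consortium for Functional Glycomics database and kept only where the protein sequence was available. Glycan names were converted to IUPAC-condensed notation, and columns mapping to the same glycan were averaged. The binding signal is a within-array Z-score, averaged across arrays of the same protein sequence at different concentrations or buffers and across linkers. Negative Z-scores can be read as non-binding.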
# [2] = target: Neu5Ac(a2-3)Gal(b1-4)GlcNAc(b1-6)GalNAc
# In short: as §1
# [3] = target: Neu5Ac(a2-3)Gal(b1-4)GlcNAc(b1-6)[Gal(b1-3)]GalNAc
# In short: as §1
# [4] = target: Neu5Ac(a2-3)Gal(b1-4)GlcNAc(b1-6)[Neu5Ac(a2-3)Gal(b1-3)]GalNAc
# In short: as §1
# [5] = target: Neu5Ac(a2-3)Gal(b1-4)GlcNAc6S
# In short: as §1
# [6] = target: Neu5Ac(a2-3)Gal(b1-4)[Fuc(a1-3)]GlcNAc
# In short: as §1
# [7] = target: Neu5Ac(a2-3)Gal(b1-4)[Fuc(a1-3)]GlcNAc(b1-2)Man
# In short: as §1
# [8] = target: Neu5Ac(a2-3)Gal(b1-4)[Fuc(a1-3)]GlcNAc(b1-3)Gal
# In short: as §1
# [9] = target: Neu5Ac(a2-3)Gal(b1-4)[Fuc(a1-3)]GlcNAc(b1-3)Gal(b1-4)GlcNAc
# In short: as §1
# [10] = target: Neu5Ac(a2-3)Gal(b1-4)[Fuc(a1-3)]GlcNAc(b1-3)Gal(b1-4)[Fuc(a1-3)]GlcNAc(b1-3)Gal(b1-4)[Fuc(a1-3)]GlcNAc
# In short: as §1
# [11] = target: Neu5Ac(a2-3)Gal(b1-4)[Fuc(a1-3)]GlcNAc(b1-3)GalNAc
# In short: as §1
# [12] = target: Neu5Ac(a2-3)Gal(b1-4)[Fuc(a1-3)]GlcNAc(b1-6)[Gal(b1-3)]GalNAc
# In short: as §1
# [13] = target: Neu5Ac(a2-3)Gal(b1-4)[Fuc(a1-3)]GlcNAc(b1-6)[Neu5Ac(a2-3)Gal(b1-3)]GalNAc
# In short: as §1
# [14] = target: Neu5Ac(a2-3)Gal(b1-4)[Fuc(a1-3)]GlcNAc6S
# In short: as §1
# [15] = target: Neu5Ac(a2-3)Gal6S(b1-4)GlcNAc
# In short: as §1
# [16] = target: Neu5Ac(a2-3)Gal6S(b1-4)[Fuc(a1-3)]GlcNAc
# In short: as §1
# Neu5Ac(a2-3)GalNAc = target: Neu5Ac(a2-3)GalNAc
# In short: as §1
# [17] = target: Neu5Ac(a2-3)GalNAc(b1-4)GlcNAc
# In short: as §1
# [18] = target: Neu5Ac(a2-3)[GalNAc(b1-4)]Gal(b1-4)Glc
# In short: as §1
# [19] = target: Neu5Ac(a2-3)[GalNAc(b1-4)]Gal(b1-4)GlcNAc
# In short: as §1
# [20] = target: Neu5Ac(a2-3)[GalNAc(b1-4)]Gal(b1-4)GlcNAc(b1-3)GalNAc
# In short: as §1
# [21] = target: Neu5Ac(a2-3)[Neu5Ac(a2-6)]GalNAc
# In short: as §1
# Neu5Ac(a2-6)Gal = target: Neu5Ac(a2-6)Gal
# In short: as §1
# [22] = target: Neu5Ac(a2-6)Gal(b1-3)GlcNAc(b1-3)[Gal(b1-4)GlcNAc(b1-6)]Gal(b1-4)Glc
# In short: as §1
# Neu5Ac(a2-6)Gal(b1-4)Glc = target: Neu5Ac(a2-6)Gal(b1-4)Glc
# In short: as §1
# [23] = target: Neu5Ac(a2-6)Gal(b1-4)GlcNAc
# In short: as §1
# [24] = target: Neu5Ac(a2-6)Gal(b1-4)GlcNAc(b1-2)Man
# In short: as §1
# [25] = target: Neu5Ac(a2-6)Gal(b1-4)GlcNAc(b1-2)Man(a1-3)Man(b1-4)GlcNAc(b1-4)GlcNAc
# In short: as §1
# [26] = target: Neu5Ac(a2-6)Gal(b1-4)GlcNAc(b1-2)Man(a1-3)[Gal(b1-4)GlcNAc(b1-2)Man(a1-6)]Man(b1-4)GlcNAc(b1-4)GlcNAc
# In short: as §1
# [27] = target: Neu5Ac(a2-6)Gal(b1-4)GlcNAc(b1-2)Man(a1-3)[GlcNAc(b1-2)Man(a1-6)]Man(b1-4)GlcNAc(b1-4)GlcNAc
# In short: as §1
# [28] = target: Neu5Ac(a2-6)Gal(b1-4)GlcNAc(b1-2)Man(a1-3)[GlcNAc(b1-4)][Neu5Ac(a2-6)Gal(b1-4)GlcNAc(b1-2)Man(a1-6)]Man(b1-4)GlcNAc(b1-4)GlcNAc
# In short: as §1
# [29] = target: Neu5Ac(a2-6)Gal(b1-4)GlcNAc(b1-2)Man(a1-3)[Man(a1-6)]Man(b1-4)GlcNAc(b1-4)GlcNAc
# In short: as §1
# [30] = target: Neu5Ac(a2-6)Gal(b1-4)GlcNAc(b1-2)Man(a1-3)[Neu5Ac(a2-3)Gal(b1-4)GlcNAc(b1-2)Man(a1-6)]Man(b1-4)GlcNAc(b1-4)GlcNAc
# In short: as §1
# [31] = target: Neu5Ac(a2-6)Gal(b1-4)GlcNAc(b1-2)Man(a1-3)[Neu5Ac(a2-6)Gal(b1-4)GlcNAc(b1-2)Man(a1-6)]Man(b1-4)GlcNAc(b1-4)GlcNAc
# In short: as §1
# [32] = target: Neu5Ac(a2-6)Gal(b1-4)GlcNAc(b1-2)Man(a1-3)[Neu5Ac(a2-6)Gal(b1-4)GlcNAc(b1-2)Man(a1-6)]Man(b1-4)GlcNAc(b1-4)[Fuc(a1-6)]GlcNAc
# In short: as §1
# [33] = target: Neu5Ac(a2-6)Gal(b1-4)GlcNAc(b1-2)Man(a1-6)Man(b1-4)GlcNAc(b1-4)GlcNAc
# In short: as §1
# [34] = target: Neu5Ac(a2-6)Gal(b1-4)GlcNAc(b1-2)Man(a1-6)[Gal(b1-4)GlcNAc(b1-2)Man(a1-3)]Man(b1-4)GlcNAc(b1-4)GlcNAc
# In short: as §1
# [35] = target: Neu5Ac(a2-6)Gal(b1-4)GlcNAc(b1-2)Man(a1-6)[GlcNAc(b1-2)Man(a1-3)]Man(b1-4)GlcNAc(b1-4)GlcNAc
# In short: as §1
# [36] = target: Neu5Ac(a2-6)Gal(b1-4)GlcNAc(b1-2)Man(a1-6)[Man(a1-3)]Man(b1-4)GlcNAc(b1-4)GlcNAc
# In short: as §1
# [37] = target: Neu5Ac(a2-6)Gal(b1-4)GlcNAc(b1-2)[Neu5Ac(a2-6)Gal(b1-4)GlcNAc(b1-4)]Man(a1-3)[GlcNAc(b1-4)][Neu5Ac(a2-6)Gal(b1-4)GlcNAc(b1-2)[Neu5Ac(a2-6)Gal(b1-4)GlcNAc(b1-6)]Man(a1-6)]Man(b1-4)GlcNAc(b1-4)GlcNAc
# In short: as §1
# [38] = target: Neu5Ac(a2-6)Gal(b1-4)GlcNAc(b1-2)[Neu5Ac(a2-6)Gal(b1-4)GlcNAc(b1-4)]Man(a1-3)[GlcNAc(b1-4)][Neu5Ac(a2-6)Gal(b1-4)GlcNAc(b1-4)Man(a1-6)]Man(b1-4)GlcNAc(b1-4)GlcNAc
# In short: as §1
# [39] = target: Neu5Ac(a2-6)Gal(b1-4)GlcNAc(b1-2)[Neu5Ac(a2-6)Gal(b1-4)GlcNAc(b1-6)]Man(a1-6)[Neu5Ac(a2-6)Gal(b1-4)GlcNAc(b1-2)Man(a1-3)][GlcNAc(b1-4)]Man(b1-4)GlcNAc(b1-4)GlcNAc
# In short: as §1
# [40] = target: Neu5Ac(a2-6)Gal(b1-4)GlcNAc(b1-3)Gal(b1-3)GlcNAc
# In short: as §1
# [41] = target: Neu5Ac(a2-6)Gal(b1-4)GlcNAc(b1-3)Gal(b1-4)GlcNAc
# In short: as §1
# [42] = target: Neu5Ac(a2-6)Gal(b1-4)GlcNAc(b1-3)Gal(b1-4)GlcNAc(b1-2)Man(a1-3)[Neu5Ac(a2-6)Gal(b1-4)GlcNAc(b1-3)Gal(b1-4)GlcNAc(b1-2)Man(a1-6)]GalNAc
# In short: as §1
binder,measurement,setting,value
B1,glycan array binding signal (z-score),[1],-0.367
same,glycan array binding signal (z-score),[2],2.62
same,glycan array binding signal (z-score),[3],-0.283
same,glycan array binding signal (z-score),[4],-0.286
same,glycan array binding signal (z-score),[5],-0.283
same,glycan array binding signal (z-score),[6],-0.281
same,glycan array binding signal (z-score),[7],-0.238
same,glycan array binding signal (z-score),[8],-0.276
same,glycan array binding signal (z-score),[9],-0.253
same,glycan array binding signal (z-score),[10],-0.242
same,glycan array binding signal (z-score),[11],-0.07
same,glycan array binding signal (z-score),[12],-0.285
same,glycan array binding signal (z-score),[13],-0.248
same,glycan array binding signal (z-score),[14],-0.286
same,glycan array binding signal (z-score),[15],-0.27
same,glycan array binding signal (z-score),[16],-0.279
same,glycan array binding signal (z-score),Neu5Ac(a2-3)GalNAc,-0.155
same,glycan array binding signal (z-score),[17],-0.279
same,glycan array binding signal (z-score),[18],0.286
same,glycan array binding signal (z-score),[19],0.316
same,glycan array binding signal (z-score),[20],0.702
same,glycan array binding signal (z-score),[21],-0.223
same,glycan array binding signal (z-score),Neu5Ac(a2-6)Gal,-0.275
same,glycan array binding signal (z-score),[22],-0.271
same,glycan array binding signal (z-score),Neu5Ac(a2-6)Gal(b1-4)Glc,-0.194
same,glycan array binding signal (z-score),[23],-0.283
same,glycan array binding signal (z-score),[24],-0.283
same,glycan array binding signal (z-score),[25],-0.284
same,glycan array binding signal (z-score),[26],-0.274
same,glycan array binding signal (z-score),[27],-0.242
same,glycan array binding signal (z-score),[28],-0.279
same,glycan array binding signal (z-score),[29],-0.279
same,glycan array binding signal (z-score),[30],-0.282
same,glycan array binding signal (z-score),[31],-0.184
same,glycan array binding signal (z-score),[32],-0.291
same,glycan array binding signal (z-score),[33],-0.274
same,glycan array binding signal (z-score),[34],-0.287
same,glycan array binding signal (z-score),[35],-0.284
same,glycan array binding signal (z-score),[36],-0.288
same,glycan array binding signal (z-score),[37],-1.26
same,glycan array binding signal (z-score),[38],-0.34
same,glycan array binding signal (z-score),[39],-0.272
same,glycan array binding signal (z-score),[40],-0.281
same,glycan array binding signal (z-score),[41],-0.293
same,glycan array binding signal (z-score),[42],-0.001
